IC50 is the fitted dose that halves viability relative to control wells, and lower means more sensitive; where the fit passes the top or lowest dose, that dose stands as a limit. The AUC spans the tested range (256-fold, ending at the top dose) of the same fit: 1 means no effect, lower means more sensitive. An inferred top dose comes from the curve model; the source does not state it.
Compound: CCCCCCCCCCCC1=C(O)C(=O)C=C(O)C1=O [Embelin]
Assay: Viability of human cancer cell lines after 72 h of drug (GDSC screen)
Details: top dose 32 µM; top dose inferred
Method: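 Human cancer cell lines in 384-well plates, medium with 10% serum, drug for 72 h over a 256-fold dose range (nine 2-fold or five 4-fold steps up to the top dose). Adherent lines were fixed and stained with the nucleic acid dye Syto60, suspension lines read with resazurin; signal relative to control wells, capped at 0 and 100%. One two-parameter sigmoid per drug and line, fitted in a mixed model over all curves with the slope shared within a line.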

For “NCI-H1876 (small cell lung carcinoma, adherent)”, the AUC was 0.776 and the IC50 was 12.9 µM.
Cell Line SW982 (soft tissue, adherent) has an AUC of 0.705 and an IC50 of 7.71 µM.
With “LU-135 (small cell lung carcinoma, suspension)” the AUC was 0.601 and the IC50 was 3.59 µM.
With KNS-42 (glioma, adherent) the AUC was 0.875 and the IC50 was greater than 32 µM.
With CAL-120 (breast, adherent) the AUC was 0.836 and the IC50 was 30.4 µM.
AM-38 (glioma, semi-adherent) was tested, and the AUC was 0.791 and the IC50 was 14.7 µM.
Work on A388 (skin, adherent) yielded an AUC of 0.692 and an IC50 of 7.52 µM.
With SW948 (large intestine, adherent) the AUC was 0.929 and the IC50 was greater than 32 µM.
For OVCAR-8 (ovary, adherent), the AUC was 0.767 and the IC50 was 10.7 µM.
Work on TE-15 (oesophagus, suspension) yielded an AUC of 0.738 and an IC50 of 10.6 µM.
In the case of LN-405 (glioma, adherent), the AUC is reported as 0.827 and the IC50 is reported as 26.8 µM.
“NCI-H209 (small cell lung carcinoma, suspension)” showed an AUC of 0.875 and an IC50 greater than 32 µM.
KYSE-150 (oesophagus, adherent) was tested, and the AUC was 0.792 and the IC50 was 13.8 µM.
Cell Line “P31-FUJ (acute myeloid leukaemia, suspension)” has an AUC of 0.977 and an IC50 greater than 32 µM.
For MDA-MB-468 (breast, adherent), the AUC was 0.841 and the IC50 was 21.1 µM.
With KMRC-20 (kidney, adherent) the AUC was 0.896 and the IC50 was greater than 32 µM.
For KM-H2 (Hodgkin lymphoma, suspension), the AUC was 0.879 and the IC50 was 24.4 µM.
Cell Line PANC-10-05 (pancreas, adherent) has an AUC of 0.795 and an IC50 of 19.8 µM.
For RS4-11 (leukaemia, suspension), the AUC was 0.771 and the IC50 was 11.2 µM.
ME-180 (cervix, adherent) gave an AUC of 0.852 and an IC50 of 26.4 µM.
Work on JHH-1 (liver, adherent) yielded an AUC of 0.666 and an IC50 of 6.04 µM.
SW1417 (large intestine, adherent) gave an AUC of 0.905 and an IC50 greater than 32 µM.
For KYSE-450 (oesophagus, adherent), the AUC was 0.722 and the IC50 was 8.17 µM.
For H4 (glioma, adherent), the AUC was 0.636 and the IC50 was 4.72 µM.
In the case of PANC-02-03 (pancreas, adherent), the AUC is reported as 0.861 and the IC50 is reported as greater than 32 µM.
Work on LB771-HNC (head and neck, adherent) yielded an AUC of 0.84 and an IC50 of 30.7 µM.
“A427 (non-small cell lung carcinoma, adherent)” was tested, and the AUC was 0.726 and the IC50 was 8.82 µM.
For JVM-3 (lymphoid neoplasm, suspension), the AUC was 0.965 and the IC50 was greater than 32 µM.
For HCC2998 (large intestine, adherent), the AUC was 0.724 and the IC50 was 8.45 µM.
5637 (bladder, adherent) gave an AUC of 0.803 and an IC50 of 14.1 µM.
For “MC-CAR (haematopoietic neoplasm, suspension)”, the AUC was 0.633 and the IC50 was 4.45 µM.
For Daoy (medulloblastoma, adherent), the AUC was 0.689 and the IC50 was 6.38 µM.
Cell Line “SW900 (lung squamous cell carcinoma, adherent)” has an AUC of 0.813 and an IC50 of 20.9 µM.
Cell Line VMRC-RCZ (kidney, adherent) has an AUC of 0.738 and an IC50 of 10.9 µM.
In the case of CHL-1 (melanoma, adherent), the AUC is reported as 0.652 and the IC50 is reported as 5.15 µM.
Cell Line “NCI-H1092 (small cell lung carcinoma, suspension)” has an AUC of 0.913 and an IC50 greater than 32 µM.
In the case of U251 (glioma, adherent), the AUC is reported as 0.747 and the IC50 is reported as 9.79 µM.
“NCI-H211 (small cell lung carcinoma, adherent)” was tested, and the AUC was 0.92 and the IC50 was greater than 32 µM.
Caov-3 (ovary, adherent) showed an AUC of 0.916 and an IC50 greater than 32 µM.
With “KMOE-2 (acute myeloid leukaemia, suspension)” the AUC was 0.945 and the IC50 was greater than 32 µM.
Work on KYM-1 (rhabdomyosarcoma, adherent) yielded an AUC of 0.899 and an IC50 of 30.4 µM.
In the case of ML-1 (thyroid, adherent), the AUC is reported as 0.612 and the IC50 is reported as 4.29 µM.
“NCI-H1755 (lung adenocarcinoma, adherent)” was tested, and the AUC was 0.888 and the IC50 was greater than 32 µM.
H2731 (mesothelioma, adherent) was tested, and the AUC was 0.829 and the IC50 was 23.8 µM.
With MFM-223 (breast, adherent) the AUC was 0.925 and the IC50 was greater than 32 µM.
Cell Line BC-1 (B-cell lymphoma, suspension) has an AUC of 0.625 and an IC50 of 4.18 µM.
RPMI-8226 (myeloma, suspension) was tested, and the AUC was 0.802 and the IC50 was 13.4 µM.
Cell Line BB49-HNC (head and neck, adherent) has an AUC of 0.797 and an IC50 of 22.8 µM.
DoTc2-4510 (cervix, adherent) showed an AUC of 0.804 and an IC50 of 15 µM.
“MS-1 (small cell lung carcinoma, suspension)” was tested, and the AUC was 0.907 and the IC50 was greater than 32 µM.
“NCI-H838 (lung adenocarcinoma, adherent)” gave an AUC of 0.915 and an IC50 greater than 32 µM.
Cell Line SW48 (large intestine, adherent) has an AUC of 0.792 and an IC50 of 14.4 µM.
CAKI-1 (kidney, adherent) was tested, and the AUC was 0.861 and the IC50 was greater than 32 µM.
“SBC-5 (small cell lung carcinoma, adherent)” showed an AUC of 0.859 and an IC50 of 19 µM.
EC-GI-10 (oesophagus, adherent) showed an AUC of 0.966 and an IC50 greater than 32 µM.
Work on UACC-62 (melanoma, adherent) yielded an AUC of 0.538 and an IC50 of 2.54 µM.
In the case of BHT-101 (thyroid, adherent), the AUC is reported as 0.828 and the IC50 is reported as 20.6 µM.
SK-OV-3 (ovary, adherent) showed an AUC of 0.729.
Cell Line “NCI-H2196 (small cell lung carcinoma, adherent)” has an AUC of 0.96 and an IC50 greater than 32 µM.
Work on SK-N-AS (neuroblastoma, adherent) yielded an AUC of 0.795 and an IC50 of 17.6 µM.
H-EMC-SS (chondrosarcoma, adherent) showed an AUC of 0.88 and an IC50 greater than 32 µM.
Work on ASH-3 (thyroid, adherent) yielded an AUC of 0.666 and an IC50 of 5.81 µM.
With MSTO-211H (mesothelioma, adherent) the AUC was 0.919 and the IC50 was greater than 32 µM.
CAMA-1 (breast, adherent) showed an AUC of 0.661 and an IC50 of 6.3 µM.
In the case of “JURL-MK1 (chronic myeloid leukaemia, suspension)”, the AUC is reported as 0.798 and the IC50 is reported as 15.1 µM.
LN-229 (glioma, adherent) was tested, and the AUC was 0.763 and the IC50 was 11.5 µM.
Work on BT-474 (breast, adherent) yielded an AUC of 0.795 and an IC50 of 16.9 µM.
“NCI-H1975 (lung adenocarcinoma, adherent)” showed an AUC of 0.845 and an IC50 of 28.3 µM.
HCC-78 (lung adenocarcinoma, adherent) was tested, and the AUC was 0.856 and the IC50 was greater than 32 µM.
With A431 (skin, adherent) the AUC was 0.704 and the IC50 was 7.31 µM.
Cell Line C2BBe1 (large intestine, adherent) has an AUC of 0.754 and an IC50 of 12.1 µM.
Work on “NCI-H2405 (lung adenocarcinoma, adherent)” yielded an AUC of 0.696 and an IC50 of 7.58 µM.
UMC-11 (lung carcinoid, adherent) was tested, and the AUC was 0.772 and the IC50 was 11.1 µM.
LOXIMVI (melanoma, semi-adherent) was tested, and the AUC was 0.843 and the IC50 was 19.1 µM.
Work on OVCAR-5 (ovary, adherent) yielded an AUC of 0.943 and an IC50 greater than 32 µM.
H2373 (mesothelioma, adherent) was tested, and the AUC was 0.834 and the IC50 was 28.8 µM.
In the case of H9 (lymphoid neoplasm, suspension), the AUC is reported as 0.913 and the IC50 is reported as greater than 32 µM.
BT-483 (breast, adherent) was tested, and the AUC was 0.907 and the IC50 was greater than 32 µM.
In the case of “NCI-H2444 (non-small cell lung carcinoma, adherent)”, the AUC is reported as 0.935 and the IC50 is reported as greater than 32 µM.
Work on NMC-G1 (glioma, adherent) yielded an AUC of 0.683 and an IC50 of 7.34 µM.
Cell Line “NCI-H2030 (lung adenocarcinoma, adherent)” has an AUC of 0.785 and an IC50 of 15.8 µM.
DOK (head and neck, adherent) showed an AUC of 0.761 and an IC50 of 17.3 µM.
Work on SCC90 (head and neck, adherent) yielded an AUC of 0.836 and an IC50 greater than 32 µM.
For “NKM-1 (acute myeloid leukaemia, suspension)”, the AUC was 0.945 and the IC50 was greater than 32 µM.
Work on D-502MG (glioma, adherent) yielded an AUC of 0.837 and an IC50 greater than 32 µM.
NH-12 (neuroblastoma, adherent) showed an AUC of 0.607 and an IC50 of 4.09 µM.
For KYSE-50 (oesophagus, adherent), the AUC was 0.72 and the IC50 was 7.87 µM.
“HAL-01 (lymphoblastic leukaemia, suspension)” was tested, and the AUC was 0.887 and the IC50 was 28.5 µM.
With “NCI-H1395 (lung adenocarcinoma, adherent)” the AUC was 0.944 and the IC50 was greater than 32 µM.
With HC-1 (hairy cell leukaemia, suspension) the AUC was 0.691 and the IC50 was 6.68 µM.
For RCM-1 (large intestine, adherent), the AUC was 0.795 and the IC50 was 18.6 µM.
For “NCI-H520 (lung squamous cell carcinoma, adherent)”, the AUC was 0.814 and the IC50 was 18.1 µM.
Cell Line “NCI-H1299 (large cell lung carcinoma, adherent)” has an AUC of 0.734 and an IC50 of 11 µM.
Work on MHH-NB-11 (neuroblastoma, adherent) yielded an AUC of 0.895 and an IC50 greater than 32 µM.
“NCI-H2291 (lung adenocarcinoma, adherent)” showed an AUC of 0.961 and an IC50 greater than 32 µM.
With “EoL-1-cell (haematopoietic neoplasm, suspension)” the AUC was 0.664 and the IC50 was 5.37 µM.
For HCC1419 (breast, adherent), the AUC was 0.795 and the IC50 was 22.6 µM.
With “NCI-H2170 (lung squamous cell carcinoma, adherent)” the AUC was 0.723 and the IC50 was 8.89 µM.
In the case of RT4 (bladder, adherent), the AUC is reported as 0.931 and the IC50 is reported as greater than 32 µM.
Cell Line PC-14 (lung adenocarcinoma, adherent) has an AUC of 0.802 and an IC50 of 13.8 µM.

Source: the supplement of paper PMC4967469
